Reference: PubChem BioAssay (Tox21)
For some assays here: This list holds what a sample rich in hits left over. Results filed as inconclusive are left out. This is a selection; strong and weak results do not stand in their true shares. Activity calls are given as the source filed them. The call rests on the fitted dose curve; in most records, active means well fitted curve in the direction sought with a large enough effect in the repeat runs; inconclusive means weak or mixed curves; inactive means no such curve, though single readings can be large; an effect the other way counts as inactive or inconclusive.

How the values were obtained:
[1] = qHTS assay for identifying genotoxic compounds that show differential cytotoxicity against isogenic chicken DT40 cell lines with known DNA damage response pathways - wild type cell line (AID 743012); conditions: DT40 wild type chicken cells viability, CellTiter-Glo, 40 h; series mostly up to 68.4 µM; further: nearly all actives have a fitted effect of over 60% in size; further: potency means the concentration at half of the fitted maximal effect
How it was run: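 Endpoint: CellTiter-Glo luminescence, 30 min RT. Cells: wild type DT40, 300/well. Exposure: compounds in DMSO, 40 h, 37 C/5% CO2, after ~0.5 h pre-incubation.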

[2] = qHTS assay for identifying genotoxic compounds that show differential cytotoxicity against isogenic chicken DT40 cell lines with known DNA damage response pathways - Rad54/Ku70 mutant cell line (AID 743015); conditions: DT40 Rad54/Ku70 mutant viability, CellTiter-Glo, 40 h; series mostly up to 66.8 µM; further: nearly all actives have a fitted effect of over 60% in size; further: potency means the concentration at half of the fitted maximal effect
Source text: (§1) National Center for Advancing Translational Sciences [NCATS]
(§2) NIH Chemical Genomics Center [NCGC]
(§3) U.S. Environmental Protection Agency [EPA]
(§4) National Institutes of Environmental Health Sciences [NIEHS]
(§5) National Toxicology Program [NTP]
U.S. Food and Drug Administration [FDA]
DNA repair pathways play a critical role in cellular homeostasis by repairing DNA damage induced by endogenous processes and xenobiotics. Isogenic chicken DT40 cell lines deficient in different DNA repair pathways can be used to identify genotoxic compounds and aid in characterizing the nature of the DNA damage induced. Two DNA repair-deficient cell lines with disrupted genes, Rad54/Ku70 or Rev3, were used to screen the Tox21 10K compound library. Possible genotoxicity was based on the presence of a significant increase in cytotoxicity in one or more of the DNA repair-deficient cell lines compared to that observed in the parental DNA repair-proficient cell line. […]
300 DT40 mutant cells in 5 uL/well were dispensed into white, solid-bottom 1536-well plates using a Multidrop Combi (ThermoFisher Scientific, Waltham, MA) dispenser. […] After 5 uL per well of CellTiter-Glo reagent was added into each well of the assay plates, the plates were incubated for 30 min at room temperature and the luminescence intensity of the plates was measured using a ViewLux (PerkinElmer, Shelton, CT) plate reader.

[3] = target: Nuclear receptor subfamily 1 group I member 2 (Homo sapiens) (UniProt O75469); assay: CYP3A4 induction through human pregnane X receptor (PXR) by small molecules, qHTS assay (AID 1346984); conditions: DPX-2 HepG2 PXR, CYP3A4-luciferin luminescence, 24 h; at 46.1 µM (top of the series); further: on the % scale 0 is the no-effect control and ±100 the full control effect; nearly all actives have a fitted effect of over 40% in size
Source text: as §1, §2, §3, §4, §5
The Pregnane X receptor (PXR), a ligand activated nuclear receptor plays a critical role in the regulation of genes involved in drug metabolism and transporters. Activation of PXR is responsible for unwanted adverse drug reactions. PXR binds xenobiotics and when compounds interact with PXR enhances the expression of CYP3A genes. Identifying the compounds with the potential for PXR activation and CYP3A4 induction can be of importance in improving the efficacy of drugs with less toxicity and avoiding drug-drug interactions.
DPX-2 (Puracyp, Inc.) cell lines, used for screening against human PXR activation has HepG2 cells co-transfected with a PXR response element and a luciferase construct containing CYP3A4 promoter. […]
DPX-2 cells were dispensed at 2,000 cells per well in 5uL of assay medium into white, solid-bottom 1536-well plates using a Multidrop Combi dispenser (Thermo Scientific). […] Then 5ul One-Glo assay reagent (Promega) was added to each plate by an FRD and following 30 min incubation at room temperature, luciferase activity was quantified on a ViewLux plate reader (Perkin Elmer).

[4] = target: Cytochrome P450 2C19 (Homo sapiens) (UniProt P33261); assay: Cytochrome P450 Family 2 Subfamily C Member 19 (CYP2C19) small molecule antagonists: luciferase reporter qHTS assay (AID 1671197); conditions: P450-Glo CYP2C19 enzyme, luciferin luminescence, 1 h; series mostly up to 52.9 µM; further: nearly all actives have a fitted effect of over 65% in size; further: potency means the concentration at half of the fitted maximal effect; on activity change, negative = inhibition: on the % scale 0 is the no-effect control and ±100 the full control effect
Sequence of UniProt P33261 (P33261 whole entry, looked up): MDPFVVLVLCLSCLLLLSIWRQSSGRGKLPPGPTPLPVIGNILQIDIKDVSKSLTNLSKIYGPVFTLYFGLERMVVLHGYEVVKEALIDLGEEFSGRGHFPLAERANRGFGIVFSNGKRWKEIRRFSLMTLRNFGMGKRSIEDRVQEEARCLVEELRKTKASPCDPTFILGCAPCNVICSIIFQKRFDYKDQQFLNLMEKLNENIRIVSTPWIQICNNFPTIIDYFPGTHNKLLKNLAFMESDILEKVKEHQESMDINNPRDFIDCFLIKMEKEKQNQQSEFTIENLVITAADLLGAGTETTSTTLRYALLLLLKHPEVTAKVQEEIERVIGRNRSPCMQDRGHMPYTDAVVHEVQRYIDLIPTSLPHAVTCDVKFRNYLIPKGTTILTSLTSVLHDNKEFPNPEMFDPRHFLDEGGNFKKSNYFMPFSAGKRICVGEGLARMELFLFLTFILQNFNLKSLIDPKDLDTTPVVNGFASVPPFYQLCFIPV
How it was run: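 CYP2C19 P450-Glo, 1536-well qHTS. Cpd + enzyme/proluciferin substrate 10 min RT; + NADPH regen, 37C 1 h; stop with luciferin detection reagent, 20 min RT, luminescence (RLU). Pos ctrl ketoconazole.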

[5] = target: Cytochrome P450 2C9 (Homo sapiens) (UniProt P11712); assay: Cytochrome P450 Family 2 Subfamily C Member 9 (CYP2C9) small molecule antagonists: luciferase reporter qHTS assay (AID 1671198); conditions: P450-Glo CYP2C9 enzyme assay, luciferin luminescence; further: potency means the concentration at half of the fitted maximal effect; nearly all actives have a fitted effect of over 50% in size
Sequence of UniProt P11712 (P11712 whole entry, looked up): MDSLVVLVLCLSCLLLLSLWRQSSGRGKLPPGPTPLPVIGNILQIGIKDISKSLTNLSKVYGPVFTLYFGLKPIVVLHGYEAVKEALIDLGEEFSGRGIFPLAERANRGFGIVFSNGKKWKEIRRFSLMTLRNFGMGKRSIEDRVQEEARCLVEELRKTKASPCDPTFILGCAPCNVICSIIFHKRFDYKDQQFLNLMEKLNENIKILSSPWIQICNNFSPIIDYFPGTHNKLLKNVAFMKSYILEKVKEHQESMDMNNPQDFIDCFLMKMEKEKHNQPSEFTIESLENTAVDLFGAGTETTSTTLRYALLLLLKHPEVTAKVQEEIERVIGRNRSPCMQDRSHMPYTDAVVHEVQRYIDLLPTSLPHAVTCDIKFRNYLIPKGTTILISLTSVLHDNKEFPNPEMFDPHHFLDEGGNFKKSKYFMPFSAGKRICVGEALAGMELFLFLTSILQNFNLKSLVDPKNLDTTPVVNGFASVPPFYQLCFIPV
How it was run: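 Enzyme-substrate mix preincubated with compound 10 min at room temperature; reaction started with NADPH regeneration solution, 1 h 37C. Luminescent luciferin product read after 20 min detection reagent.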

[6] = target: Cytochrome P450 1A2 (Homo sapiens) (UniProt P05177); assay: Cytochrome P450 Family 1 Subfamily A Member 2 (CYP1A2) small molecule antagonists: luciferase reporter qHTS assay (AID 1671199); conditions: P450-Glo CYP1A2 enzyme, luciferin luminescence, 1 h; series mostly up to 53 µM; further: nearly all actives have a fitted effect of over 50% in size; further: potency means the concentration at half of the fitted maximal effect; on activity change, negative = inhibition: on the % scale 0 is the no-effect control and ±100 the full control effect
Sequence of UniProt P05177 (P05177 whole entry, looked up): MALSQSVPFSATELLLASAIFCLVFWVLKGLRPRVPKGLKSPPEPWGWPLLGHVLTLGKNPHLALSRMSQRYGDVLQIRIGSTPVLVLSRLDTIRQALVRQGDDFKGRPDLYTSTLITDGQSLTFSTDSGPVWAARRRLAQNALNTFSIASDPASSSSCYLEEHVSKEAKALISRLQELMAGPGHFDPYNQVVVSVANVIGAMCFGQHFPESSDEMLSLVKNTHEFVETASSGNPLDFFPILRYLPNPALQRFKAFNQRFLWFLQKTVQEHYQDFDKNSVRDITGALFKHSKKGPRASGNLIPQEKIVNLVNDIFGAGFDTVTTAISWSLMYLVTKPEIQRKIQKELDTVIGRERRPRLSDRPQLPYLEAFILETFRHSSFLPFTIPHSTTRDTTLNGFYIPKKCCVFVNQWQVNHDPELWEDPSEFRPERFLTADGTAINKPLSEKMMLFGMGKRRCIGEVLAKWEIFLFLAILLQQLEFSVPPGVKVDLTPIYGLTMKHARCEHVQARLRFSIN
How it was run: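 Read-out is luminescence from luciferin detection reagent (20 min) proportional to CYP1A2 activity; compounds in DMSO preincubated 10 min with enzyme and proluciferin substrate, then NADPH regeneration solution, 1 h, room temperature.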

[7] = target: Voltage-gated inwardly rectifying potassium channel KCNH2 (Homo sapiens) (UniProt Q12809); assay: Human Ether-a-go-go-Related Gene (hERG) channel small molecule antagonists: fluorescence cell-based qHTS assay (AID 1671200); conditions: hERG-U2OS cells, FluxOR thallium flux fluorescence; at 76.8 µM (top of the series) unless noted;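 further: hERG-expressing U2OS cells given a thallium stimulus after FluxOR II dye loading; on the % scale 0 is the no-effect control and ±100 the full control effect; nearly all actives have a fitted effect of over 50% in size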
Sequence of UniProt Q12809 (Q12809 whole entry, looked up): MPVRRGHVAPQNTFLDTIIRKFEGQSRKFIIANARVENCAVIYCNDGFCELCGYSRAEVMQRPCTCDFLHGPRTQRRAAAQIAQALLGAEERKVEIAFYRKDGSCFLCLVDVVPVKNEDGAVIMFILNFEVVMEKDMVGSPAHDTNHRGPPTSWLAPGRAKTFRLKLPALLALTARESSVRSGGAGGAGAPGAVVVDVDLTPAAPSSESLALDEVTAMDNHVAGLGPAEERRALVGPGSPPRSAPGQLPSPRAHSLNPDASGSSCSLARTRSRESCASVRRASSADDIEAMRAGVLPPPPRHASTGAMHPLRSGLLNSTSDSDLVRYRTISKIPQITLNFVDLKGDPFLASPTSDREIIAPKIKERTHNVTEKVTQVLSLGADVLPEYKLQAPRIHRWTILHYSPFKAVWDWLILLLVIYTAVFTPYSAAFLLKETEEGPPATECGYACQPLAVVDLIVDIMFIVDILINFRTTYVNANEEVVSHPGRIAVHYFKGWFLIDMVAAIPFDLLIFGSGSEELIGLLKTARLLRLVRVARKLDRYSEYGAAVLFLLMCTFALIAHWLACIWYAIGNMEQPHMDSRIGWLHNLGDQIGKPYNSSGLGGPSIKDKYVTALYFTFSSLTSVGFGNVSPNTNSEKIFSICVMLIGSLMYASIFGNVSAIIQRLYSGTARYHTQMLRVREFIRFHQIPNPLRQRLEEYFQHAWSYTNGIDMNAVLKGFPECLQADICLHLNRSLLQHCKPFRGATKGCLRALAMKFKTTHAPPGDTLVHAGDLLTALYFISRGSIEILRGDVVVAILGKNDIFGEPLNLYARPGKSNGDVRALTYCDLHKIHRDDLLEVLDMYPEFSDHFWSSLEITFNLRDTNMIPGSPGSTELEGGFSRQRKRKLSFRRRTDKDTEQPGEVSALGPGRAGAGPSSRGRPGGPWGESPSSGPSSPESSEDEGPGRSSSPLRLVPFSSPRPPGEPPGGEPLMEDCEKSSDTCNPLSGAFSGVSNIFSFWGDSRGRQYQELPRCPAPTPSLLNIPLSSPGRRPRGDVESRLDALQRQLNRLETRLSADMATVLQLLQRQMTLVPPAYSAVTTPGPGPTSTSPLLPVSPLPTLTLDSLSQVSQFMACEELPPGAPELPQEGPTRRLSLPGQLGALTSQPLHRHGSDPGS
How it was run: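 First, 1000 cells per well are seeded and cultured overnight at 37 C. Next, FluxOR II dye is loaded for 1 h at room temperature, protected from light. After 10 more minutes, stimulus is added and fluorescence is read.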

[8] = qHTS assay for identifying genotoxic compounds that show differential cytotoxicity against isogenic chicken DT40 cell lines with known DNA damage response pathways - Rev3 mutant cell line (AID 743014); conditions: chicken DT40 Rev3-/- viability, CellTiter-Glo, 40 h; further: potency means the concentration at half of the fitted maximal effect; nearly all actives have a fitted effect of over 55% in size
[9] = target: Cytochrome P450 3A4 (Homo sapiens) (UniProt P08684); assay: Cytochrome P450 Family 3 Subfamily A Member 4 (CYP3A4) small molecule antagonists: luciferase reporter qHTS assay (AID 1671201); conditions: P450-Glo CYP3A4 enzyme, luciferin luminescence, 1 h; further: potency means the concentration at half of the fitted maximal effect; nearly all actives have a fitted effect of over 50% in size
Sequence of UniProt P08684 (P08684 whole entry, looked up): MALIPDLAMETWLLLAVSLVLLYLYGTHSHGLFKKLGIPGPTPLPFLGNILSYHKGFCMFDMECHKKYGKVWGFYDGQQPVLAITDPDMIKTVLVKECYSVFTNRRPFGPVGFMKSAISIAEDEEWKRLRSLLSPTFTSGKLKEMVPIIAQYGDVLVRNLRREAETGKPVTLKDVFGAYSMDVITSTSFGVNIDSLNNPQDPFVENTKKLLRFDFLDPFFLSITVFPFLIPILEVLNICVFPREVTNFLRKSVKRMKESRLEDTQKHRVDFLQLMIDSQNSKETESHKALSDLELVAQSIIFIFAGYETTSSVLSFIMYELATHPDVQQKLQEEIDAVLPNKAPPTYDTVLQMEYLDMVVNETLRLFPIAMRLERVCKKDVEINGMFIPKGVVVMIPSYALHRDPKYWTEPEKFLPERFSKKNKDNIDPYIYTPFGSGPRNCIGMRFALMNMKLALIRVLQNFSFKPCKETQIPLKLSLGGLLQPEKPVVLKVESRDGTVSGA
How it was run: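 Enzyme and proluciferin substrate are mixed with test chemicals for 10 min, then NADPH regeneration system drives turnover for 1 h at room temperature. A detection reagent halts the reaction; luminescence after 20 min gives relative activity.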

SMILES	Potency [1]	Potency [2]	activation [3]	Potency [4]	Potency [5]	Potency [6]	activity change, negative = inhibition [7]	Potency [8]	Potency [9]
CN1c2ccccc2C(NCCCCCCC(=O)O)c2ccc(Cl)cc2S1(=O)=O (configuration not stated)	inactive	inactive	inactive: 1.58%	–	–	–	–	–	–
CC(=O)[C@H]1CC[C@H]2[C@@H]3CC[C@H]4C[C@H](O)CC[C@]4(C)[C@H]3C(=O)C[C@]12C	active: 23.7 µM	–	inactive: -4.68%	inactive	active: 9.77 µM	inactive	inactive: 10.7% [at 35.3 µM]	–	–
Nc1ccccc1C(=O)OC/C=C/c1ccccc1	active: 48.7 µM	active: 43.4 µM	–	active: 3.57 µM	active: 20.1 µM	active: 10.1 µM	inactive: -21.4%	active: 27.4 µM	active: 63.4 µM
